Data: PubChem BioAssay AID588342 (National Center for Advancing Translational Sciences (NCATS), 2011)
Among all 360,000 compounds or so, about 25,000 (6.9%) were called active. The inconclusive results got no clear call from the source; some entries with a clear call stand among them for comparison. Calls come from the whole dose curve; as a rule, active = well fitted inhibition curve with a large enough effect; inconclusive = small, poorly fitted or top-dose-only effect; inactive = flat fitted curve, though single readings scatter. Potencies beside an inconclusive call are fits to weak or partial responses and may not hold up.

biological target: Luciferin 4-monooxygenase (Photinus pyralis) (UniProt P08659); assay: qHTS profiling assay for firefly luciferase inhibitor/activator using purifed enzyme and Km concentrations of substrates (counterscreen for miR-21 project); settings: purified FLuc, luminescence inhibition; activity change, negative = inhibition: at 57.5 µM (top of the series); note: nearly all actives have a fitted effect of over 55% in size;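 for activity change, negative = inhibition: plate controls were vehicle for no effect and reference inhibitor for full effect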
In short: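 Purified P. pyralis luciferase (10nM final) with 10uM D-luciferin and 10uM ATP (Km levels) in 50mM Tris acetate pH 7.5, 10mM Mg acetate, 0.01% Tween-20, 0.05% BSA; qHTS 6-point titration, ~60 µM downward; luminescence read.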
Potency is the fitted concentration of half-maximal effect; tags give direction and shape of the fitted curve.

Chain of UniProt P08659 (P08659 whole entry, looked up): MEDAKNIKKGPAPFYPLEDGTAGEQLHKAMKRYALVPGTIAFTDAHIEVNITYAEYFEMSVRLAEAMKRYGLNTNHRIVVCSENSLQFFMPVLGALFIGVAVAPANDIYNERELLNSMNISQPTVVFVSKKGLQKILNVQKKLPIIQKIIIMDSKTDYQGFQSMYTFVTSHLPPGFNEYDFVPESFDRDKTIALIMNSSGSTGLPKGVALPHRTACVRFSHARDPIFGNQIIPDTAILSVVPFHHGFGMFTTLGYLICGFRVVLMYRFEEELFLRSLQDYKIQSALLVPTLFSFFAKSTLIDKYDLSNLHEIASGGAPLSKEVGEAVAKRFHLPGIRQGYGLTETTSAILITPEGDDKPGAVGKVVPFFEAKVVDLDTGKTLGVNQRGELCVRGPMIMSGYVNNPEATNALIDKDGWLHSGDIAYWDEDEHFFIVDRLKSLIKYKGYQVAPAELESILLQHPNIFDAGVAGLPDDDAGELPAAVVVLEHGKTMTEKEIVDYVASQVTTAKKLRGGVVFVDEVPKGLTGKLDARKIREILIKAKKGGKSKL

Row | SMILES | Potency | activity change, negative = inhibition
1 | COC(=O)c1ccc(COc2ccc3c(c2)CCC3)o1 | active: 16.9 µM | 
2 | Fc1ccc(-c2nc(Nc3cccc(Cl)c3)nc3c2COc2ccccc2-3)cc1 |  | inactive: -14.4%
3 | COC(=O)c1ccc(CNC(=O)C(C)N=C2NS(=O)(=O)c3ccccc32)cc1 (centres undefined) |  | inactive: 1.77%
4 | COc1ccccc1C(=O)NC(=S)Nc1cc(C(=O)O)ccc1C | inconclusive: 26.9 µM [inhibitor, single point] | 
5 | COc1cccc(N2CCN(Cc3ccco3)CC2)c1 | inconclusive: 30.1 µM [inhibitor, partial curve, poor fit] | 
6 | Cc1cc(C)nc(NC(=O)CSc2nc3cc(Cl)ccc3s2)n1 | inconclusive: 37.9 µM [inhibitor, single point] | 
7 | CCOc1ccc(C(=O)Nc2ccccc2N2CCCC2)cc1 | inconclusive: 21.3 µM [inhibitor, partial curve, poor fit] | 
8 | O=C1C2C3C=CC(C3)C2C(=O)N1c1ccc2ccccc2n1 (centres undefined) | inconclusive: 21.3 µM [inhibitor, partial curve] | 
9 | CC(C)(C)NC(=O)CSc1nc2ccc(NC(=O)CSc3nnc(N)s3)cc2s1 | active: 12 µM | 
10 | Cc1cc(C(=O)N/N=C/c2cccnc2)cs1 | inconclusive: 12 µM [inhibitor, partial curve, poor fit] | 
11 | Cc1ccc(CN(C)C(=O)C2CCC(=O)N(CCc3ccccc3)C2)o1 (centres undefined) | inconclusive: 30.1 µM [inhibitor, partial curve, poor fit] | 
12 | Nc1nc(Nc2cccc(Cl)c2)nc(NCc2ccco2)c1[N+](=O)[O-] | inconclusive: 21.3 µM [inhibitor, single point] | 
13 | COc1ccc(-c2nn(-c3ccccc3)cc2C(=O)Nc2ccc(C(=O)O)cc2)cc1OC | active: 4.26 µM | 
14 | CCc1cccc(NC(=O)c2cccc3c2C(=O)N(CC2CCCO2)C3)c1 (centres undefined) | inconclusive: 19 µM [inhibitor, partial curve, poor fit] | 
15 | CC(C)(C)c1ccc(OCC(=O)NNC(=O)c2cccnc2)cc1 | inconclusive: 37.9 µM [inhibitor, single point] | 
16 | CCC(CC)c1nnc(NC(=O)CCc2ccc(OC)cc2)s1 | inconclusive: 37.9 µM [inhibitor, single point] | 
17 | COc1cccc(/C=N/NC(=O)c2cc3c(OC)c(OC)ccc3[nH]2)c1OC | active: 10.7 µM | 
18 | COc1ccccc1NS(=O)(=O)c1cccc(NC(=O)c2sc3ccccc3c2Cl)c1 | inconclusive: 8.49 µM [inhibitor, partial curve, poor fit] | 
19 | COc1ccc(C(=O)NC(=S)Nc2ccc3oc(=O)ccc3c2)cc1 |  | inactive: 1.04%
